Assay results taken from PubChem BioAssay AID1345083 (National Center for Advancing Translational Sciences (NCATS), 2018).
In all, about 94,000 compounds went through this assay and about 6,200 (6.6%) were called active. The shares of active, inactive and inconclusive entries below differ from those in the screen. Calls follow the shape of the dose curve; as a rule, active = well fitted inhibition curve with a large enough effect; inconclusive = small, poorly fitted or top-dose-only effect; inactive = flat fitted curve, though single readings scatter. Potencies of inconclusive entries are doubtful fits and often do not repeat.

Test: Cytotoxic Profiling in HEK 293 Cell Line of Diverse Libraries Using Quantitative High-Throughput Screening; also: nearly all actives have a fitted effect of over 60% in size
Conditions: HEK 293 viability, ATP luminescence (CellTiter-Glo), 48-72 h; series mostly up to 115 µM
Summary of the method: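 CellTiter-Glo luminescence (cellular ATP) was read after 48 or 72 hr of compound exposure at 37 degree Celsius. Cells were HEK 293 plated at 250 cells/well.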
Potency is read from the fitted curve at half-maximal effect; tags tell the direction and shape of the fitted curve.

Row | SMILES | Potency
1 | Cc1noc2c(NC3CCC(O)CC3)cc(-c3ccc(F)cc3)nc12 (stereo not drawn) | inconclusive: 100 µM [inhibitor, partial curve, poor fit]
2 | Cc1oc(-c2cccc(F)c2F)nc1CN(C)Cc1ccc(C(F)(F)F)cc1 | inactive
3 | COCCn1c(=O)c(C(=O)N2CCOCC2)nc2cccnc21 | inactive
4 | Cc1ccc(OCC(=O)NCCC2CCN(C(=O)Nc3cc(F)cc(F)c3)CC2)cc1 | inconclusive: 89.1 µM [inhibitor, single point]
5 | CNc1nc2c(s1)C[C@]1(C)CCC([C@H](C)C(=O)N3CCSCC3)[C@H](O)[C@H]1[C@@H]2C (stereo partly drawn) | inconclusive: 126 µM [inhibitor, single point]
6 | COCC(=O)NC1CCN(Cc2cccc(-c3cccc(C)c3)c2)CC1 | inconclusive: 79.4 µM [inhibitor, partial curve]
7 | O=C(O)CCC(=O)N1Cc2ccccc2CC2(CCCN2CC2CCNCC2)C1 (stereo not drawn) | inactive
8 | CC(C)NC(=O)c1ccc2nnc(-c3ccc(C(F)(F)F)cc3)n2c1 | inactive
9 | CN(C(=O)[C@@H]1C[C@@H](c2ccc(F)cc2)N([S+](=O)([O-])c2ccccc2)C1)c1ccccc1 | inconclusive: 79.4 µM [inhibitor, partial curve, poor fit]
10 | CCn1cc(S(=O)(=O)N2CCC3(CC2)CN(C2CCC2)CC3COC)cn1 (stereo not drawn) | inconclusive: 50.1 µM [inhibitor, partial curve, poor fit]
11 | CN(C)S(=O)(=O)N1CCC(CCc2nc(C3CCOCC3)no2)CC1 | inconclusive: 89.1 µM [inhibitor, single point]
12 | CCc1noc(-c2cccn3c(CNC(=O)c4ccc(OC)cc4)nnc23)n1 | inconclusive: 89.1 µM [inhibitor, single point]
13 | COc1ccc(CN2CC3(CCN(S(=O)(=O)c4cc(F)ccc4F)CC3)C2=O)cc1 | inconclusive: 56.2 µM [inhibitor, partial curve, poor fit]
14 | Cc1noc(C)c1[S+](=O)([O-])N1CCCC1C(=O)N1CCC(N2Cc3cccn3C2=O)CC1 (stereo not drawn) | inactive
15 | c1ccc(CN2C[C@@H]3CC[C@H](C2)N(Cc2ccc4nsnc4c2)C3)nc1 | inconclusive: 89.1 µM [inhibitor, single point]
16 | COCCN1C(=O)CS(=O)(=O)C12CCN(C(=O)CCc1cccc(OC)c1)CC2 | inactive
17 | CCCS(=O)(=O)N1CCCC(Cc2noc(-c3cccnc3)n2)C1 (stereo not drawn) | inconclusive: 50.1 µM [inhibitor, partial curve, poor fit]
18 | Cn1c(Cn2cccn2)nnc1C1CCCN(C(=O)Cc2cccnc2)C1 (stereo not drawn) | inactive
